Measurements reported in PubChem BioAssay AID602310 (National Center for Advancing Translational Sciences (NCATS), 2012).
In all, about 410,000 compounds went through this assay and about 310 (0.076%) were called active. This list was built around the results that the source calls inconclusive (neither active nor inactive); the mix of calls is not that of the screen. Calls follow the shape of the dose curve; as a rule, active = well fitted curve in the direction sought with a large enough effect; inconclusive = small, poorly fitted or top-dose-only effect; inactive = flat fitted curve, though single readings scatter. Where the call is inconclusive, the potency comes from a doubtful curve fit.

What follows are compounds tested against DNA dC->dU-editing enzyme APOBEC-3G (Homo sapiens) (UniProt Q9HC16) (assay: qHTS for Inhibitors of Vif-A3G Interactions: qHTS). Settings: HeLa A3G-eYFP + Vif (tagged APOBEC3G with the HIV-1 protein that degrades it), YFP fluorescence, overnight; series mostly up to 46.1 µM.
Chain of UniProt Q9HC16 (Q9HC16 whole entry, looked up): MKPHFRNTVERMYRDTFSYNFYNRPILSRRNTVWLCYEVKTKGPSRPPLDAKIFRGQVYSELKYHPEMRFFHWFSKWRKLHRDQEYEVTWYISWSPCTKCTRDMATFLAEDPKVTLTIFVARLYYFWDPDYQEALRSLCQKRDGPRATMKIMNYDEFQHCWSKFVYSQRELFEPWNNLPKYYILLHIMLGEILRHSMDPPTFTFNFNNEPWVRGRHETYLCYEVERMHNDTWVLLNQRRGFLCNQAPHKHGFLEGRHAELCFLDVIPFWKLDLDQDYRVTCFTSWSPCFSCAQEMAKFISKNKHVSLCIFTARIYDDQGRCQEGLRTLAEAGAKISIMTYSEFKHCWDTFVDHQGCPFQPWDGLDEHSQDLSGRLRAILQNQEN
Summary of the method: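 Read-out is eYFP fluorescence (Ex 488/Em 500-530) from Vif-expressing HeLa A3G-eYFP cells; more signal means A3G escaped Vif-mediated degradation. Cells plated overnight, compound pinned in, incubated overnight at 37 deg C.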
Also: nearly all actives have a fitted effect of over 60% in size.
Potency is read from the fitted curve at half-maximal effect; tags tell the direction and shape of the fitted curve.

Structure (SMILES)	Potency
Cc1ccc(N(Cc2cc3cc(C)ccc3[nH]c2=O)S(=O)(=O)c2ccccc2)cc1	inconclusive: 5.62 µM [inhibitor, full curve, poor fit]
Cc1ccc2ccc3c(c2n1)NS(=O)(=O)c1ccc(C(F)(F)F)cc1-3	inconclusive: 3.55 µM [inhibitor, full curve, poor fit]
CC(C)COc1ccc(C(=O)N/C(=C/c2cccc([N+](=O)[O-])c2)C(=O)O)cc1	active: 10 µM
CCOC(=O)C1CCCN(C(=O)c2cc(-c3ccc(F)cc3)nc3ccccc23)C1 (stereo not given)	inactive
COc1ccc(N(C(=O)c2snc(C(N)=O)c2N)C(C(=O)NC2CCCCC2)c2ccc(C)o2)cc1 (stereo not given)	inactive
O=[N+]([O-])c1cc(C(F)(F)F)ccc1NCCc1c[nH]c2ccccc12	inactive
COc1ccc(NS(=O)(=O)c2cc(C)ccc2NC(=O)c2cc(C)oc2C)cc1	inactive
Cc1ccc(OCCNC(=O)C(=O)NCc2ccco2)cc1	inconclusive: 5.62 µM [inhibitor, full curve, poor fit]
COc1ccc2nc(-c3ccco3)c(-c3ccco3)nc2c1	inactive
COc1ccccc1C(=O)N/C(N)=N/c1nc2ccccc2o1	inconclusive: 35.5 µM [inhibitor, single point]
C[n+]1ccc(/C=C/c2cc[n+](C)c3ccccc23)c2ccccc21	active: 12.6 µM
COc1cc(/C=C2/SC(=Nc3ccc(O)cc3)NC2=O)cc(OC)c1O	inconclusive: 3.16 µM [inhibitor, single point]
O=C(N=Nc1c(O)[nH]c2ccc(Br)cc12)c1ccccc1-n1cccc1	inconclusive: 1.26 µM [inhibitor, partial curve, poor fit]
COc1ccc(Cl)cc1C=CC=Nc1ccc(S(N)(=O)=O)cc1	inconclusive: 35.5 µM [inhibitor, single point]
COc1ccc(-c2cc(C(=O)NC3=NCCS3)c3ccccc3n2)cc1OC	inactive
C(=C\c1ccnc2ccccc12)/c1ccc(N2CCOCC2)cc1	inactive
COc1ccc(-c2cc(C)no2)cc1S(=O)(=O)N(C)c1ccc(C)cc1	inconclusive: 3.16 µM [inhibitor, full curve, poor fit]
COc1ccc(C(=O)N2CCN(C3CCN(Cc4ccccc4)CC3)CC2)cc1OC	inactive
S=c1nc[nH]c2c1ncn2C1CCCO1 (stereo not given)	inconclusive: 3.55 µM [inhibitor, single point]
Cc1ccc(C2C(C(=O)c3cccs3)=C(O)C(=O)N2c2nnc(C)s2)cc1 (stereo not given)	inconclusive: 17.8 µM [inhibitor, partial curve, poor fit]
